Data as given in PMC9125540 (Virology Journal, 2022).
Where “and” joins values, the source holds several entries; their conditions need not be identical. Equal entries are not always repeated. Structures can show the parent of a compound that is named as a salt. Where two headings read alike, the source gives them in different places.

Tests used:
[1] = tested on: influenza A virus PR/8/34 (H1N1); details: for Log2 HA decrement (mean ± SD): compared to H1N1, compound at NCTC
[2] = tested on: influenza A virus PR/8/34 (H1N1); assay type: cell-based
[3] = tested on: influenza A virus PR/8/34 (H1N1); assay type: cell-based; remark: listed apart in the source
[4] = Co-pen, compound at NCTC + H1N1, MDCK
[5] = Co-pen, compound at NCTC + H1N1, MDCK, 48 h, MTT
[6] = Post-pen, compound at NCTC + H1N1, MDCK
[7] = Post-pen, compound at NCTC + H1N1, MDCK, 48 h, MTT
[8] = Pre-pen, compound at NCTC + H1N1, MDCK
[9] = Pre-pen, compound at NCTC + H1N1, MDCK, 48 h, MTT

NC12CC3CC(CC(C3)C1)C2 [Amantadine hydrochloride, reference compound]
Log2 HA decrement (mean ± SD) ([1]; Co-pen (simultaneous)): 5.50 ± 0.71 logs
Log2 HA decrement (mean ± SD) ([1]; Co-pen (simultaneous), listed as amantadine): 5.5 ± 0.71 logs
Log2 HA decrement (mean ± SD) ([1]; Post-pen): 3.00 ± 2.83 logs
Log2 HA decrement (mean ± SD) ([1]; Pre-pen): 4.00 ± 1.41 logs
Percentage of protection (mean ± SD) [2, 4]: 57.70 ± 2.73
Cell viability (mean ± SD) [2, 5]: 0.89 ± 0.03
Percentage of protection (mean ± SD) [2, 6]: 35.68 ± 27.93
Cell viability (mean ± SD) [2, 7]: 0.54 ± 0.05
Percentage of protection (mean ± SD) [2, 8]: 22.08 ± 4.11
Cell viability (mean ± SD) [2, 9]: 0.52 ± 0.04

O=C1O[C@H]([C@@H](O)CO)C(O)=C1O [Ascorbate, ascorbic acid]
Reduction of the infectious dose of the virus (TCID50) ([3]; co-penetration, in comparison with the virus (10^6.5)): 6.5 logs
Log2 HA decrement (mean ± SD) ([1]; Co-pen (simultaneous)): 6.5 logs
Log2 HA decrement (mean ± SD) ([1]; Co-pen (simultaneous), listed as Asc): 6.50 ± 0.71 logs
Log2 HA decrement (mean ± SD) ([1]; Post-pen): 4.5 logs
Log2 HA decrement (mean ± SD) ([1]; Post-pen, listed as Asc): 4.50 ± 0.71 logs
Log2 HA decrement (mean ± SD) ([1]; Pre-pen): 6.5 logs
Log2 HA decrement (mean ± SD) ([1]; Pre-pen, listed as Asc): 6.50 ± 0.71 logs
HA decrement ([1]; treatment not specified (Fig. 1)): more than 6 logs
Percentage of protection (mean ± SD) [2, 4]: 505.12 ± 2.35
Cell viability (mean ± SD) [2, 5]: 2.97 ± 0.01
Percentage of protection (mean ± SD) [2, 6]: 642.65 ± 40.03
Cell viability (mean ± SD) [2, 7]: 3.69 ± 0.21
Percentage of protection (mean ± SD) [2, 8]: 287.06 ± 150.79
Cell viability (mean ± SD) [2, 9]: 1.82 ± 0.79

CC(=O)[O-].[Na+] [Acetate, sodium acetate]
Reduction of the infectious dose of the virus (TCID50) [3]: 1.75 logs
Percentage of protection (mean ± SD) [2, 4]: 150.66 ± 3.05
Cell viability (mean ± SD) [2, 5]: 1.11 ± 0.02
Percentage of protection (mean ± SD) [2, 6]: 94.52 ± 17.04
Cell viability (mean ± SD) [2, 7]: 0.82 ± 0.09
Percentage of protection (mean ± SD) [2, 8]: 145.35 ± 3.95
Cell viability (mean ± SD) [2, 9]: 1.08 ± 0.02

O=C(O)CC(O)(CC(=O)O)C(=O)O [Citrate, sodium citrate]
HA titer [1]: 32 and 16
Cell viability (mean ± SD) [2]: 1.34 ± 0.41 and 1.03 ± 0.04 and 0.92 ± 0.03
Percentage of protection (mean ± SD) [2]: 193.77 ± 77.98 and 135.74 ± 7.25 and 115.40 ± 30.31
